The other results are listed elsewhere or left out. At the low end of the ranking the order means little.
These sequences were tested against SIX1-Q177R homeodomain (UniProt Q15475) (assay: universal protein binding microarray). Conditions: Universal all-10-mer PBM (8x60K, AMADID 030236), 300 nM GST-tagged protein, Alexa Fluor 488 anti-GST; buffer, salt, pH and temperature not stated; high values mean tight binding; most listed sequences are background and not binding sites; double strand, one strand shown.
Sequence AGGTGGGA has a binding signal of 0.0922 E-score.
For GCCGTAGA, the binding signal was -0.149 E-score.
In the case of CCGTCCCC, the binding signal is reported as 0.0126 E-score.
With AGGGCCAC the binding signal was -0.2 E-score.
CAGAAGCG was tested, and the binding signal was -0.0423 E-score.
For GGCGGGCA, the binding signal was -0.12 E-score.
CTATGAGC was tested, and the binding signal was -0.172 E-score.
AAGCAAGC showed a binding signal of -0.231 E-score.
With TCCTATAA the binding signal was -0.172 E-score.
Work on GTATCTTA yielded a binding signal of 0.11 E-score.
For CGCACTTA, the binding signal was -0.101 E-score.
Work on CAGGACGG yielded a binding signal of -0.0736 E-score.
Work on AGTGATAG yielded a binding signal of -0.0083 E-score.
GACCCCCC showed a binding signal of 0.248 E-score.
CGGCATAC gave a binding signal of 0.0159 E-score.
With ATAAGGCC the binding signal was -0.102 E-score.
Sequence GAGAGAAA has a binding signal of -0.346 E-score.
AGTGTTCA was tested, and the binding signal was 0.343 E-score.
In the case of ATCATATG, the binding signal is reported as 0.0663 E-score.
In the case of ACGACAGG, the binding signal is reported as 0.0617 E-score.
AGCTCCAT was tested, and the binding signal was -0.103 E-score.
GACTTGAA showed a binding signal of -0.318 E-score.
CAATTACA was tested, and the binding signal was 0.129 E-score.
AGCCAGGG was tested, and the binding signal was -0.0733 E-score.
For AGATAGAT, the binding signal was -0.267 E-score.
AACCGTGA gave a binding signal of -0.162 E-score.
Work on ACGTGAAG yielded a binding signal of -0.106 E-score.
With ACGCGGGA the binding signal was 0.119 E-score.
ACGGTCTC showed a binding signal of 0.153 E-score.
TCTCAACA gave a binding signal of 0.219 E-score.
Sequence TAAGATGA has a binding signal of -0.12 E-score.
CGATATAA gave a binding signal of -0.0667 E-score.
GCTGCAGA showed a binding signal of -0.17 E-score.
In the case of AAACAAAA, the binding signal is reported as -0.163 E-score.
Sequence TAGGCGCA has a binding signal of -0.0774 E-score.
GCCGTACC was tested, and the binding signal was 0.019 E-score.
Sequence CTCCATAC has a binding signal of 0.0613 E-score.
Work on CATCCCTA yielded a binding signal of -0.156 E-score.
Work on TGCATACA yielded a binding signal of 0.133 E-score.
For GCGGTCGA, the binding signal was 0.152 E-score.
For GCAGCGAA, the binding signal was -0.131 E-score.
TAGCCAGA was tested, and the binding signal was -0.248 E-score.
GCCCGAGC was tested, and the binding signal was -0.142 E-score.
In the case of GCGGAAGC, the binding signal is reported as -0.15 E-score.
GTCTTACA was tested, and the binding signal was 0.249 E-score.
CACGTCGC was tested, and the binding signal was -0.00501 E-score.
CGGTCGGC showed a binding signal of -0.0634 E-score.
AACACGGT gave a binding signal of 0.383 E-score.
GAATCAAA gave a binding signal of -0.0282 E-score.
With ATATTCAT the binding signal was -0.0466 E-score.
Sequence GAGTTAAA has a binding signal of -0.0185 E-score.
AACTGACT was tested, and the binding signal was -0.0541 E-score.
AGACCGAA gave a binding signal of -0.163 E-score.
In the case of ACCGGGAC, the binding signal is reported as 0.0225 E-score.
Sequence CAGTTATC has a binding signal of -0.188 E-score.
TCTCCGAA gave a binding signal of -0.205 E-score.
AGGGTGGC was tested, and the binding signal was 0.00221 E-score.
Sequence AATCGACC has a binding signal of -0.0146 E-score.
For CGTCTTAC, the binding signal was -0.0955 E-score.
Work on AAACGAGC yielded a binding signal of -0.0975 E-score.
CGATTTGA was tested, and the binding signal was -0.194 E-score.
With AACGTAAT the binding signal was -0.149 E-score.
AGTACAAT gave a binding signal of -0.157 E-score.
For GAACTGGA, the binding signal was -0.236 E-score.
ACTGGACA showed a binding signal of 0.0461 E-score.
GAACAGTA was tested, and the binding signal was -0.222 E-score.
For GAGGGGGA, the binding signal was -0.00312 E-score.
Sequence CATTGTGA has a binding signal of 0.0457 E-score.
CGTCTACA gave a binding signal of 0.0567 E-score.
With GTTGGGCA the binding signal was 0.153 E-score.
AGTTCGTA showed a binding signal of -0.11 E-score.
ACAGGCCA gave a binding signal of -0.127 E-score.
With ATGTTCTA the binding signal was -0.231 E-score.
For AGAATTAA, the binding signal was -0.33 E-score.
For CTTTTGTC, the binding signal was -0.275 E-score.
AAAAGCGT showed a binding signal of -0.0991 E-score.
AGTGAGCG showed a binding signal of -0.0831 E-score.
In the case of CCCGTCGA, the binding signal is reported as 0.108 E-score.
In the case of ATGATACA, the binding signal is reported as 0.0981 E-score.
For CCGTATCA, the binding signal was 0.245 E-score.
TCTTGTCA showed a binding signal of 0.0181 E-score.
For AGCTGCGC, the binding signal was -0.135 E-score.
CAAGATCA showed a binding signal of 0.0552 E-score.
Sequence ACCCGTCA has a binding signal of 0.11 E-score.
Work on AAGAATCA yielded a binding signal of -0.144 E-score.
GCGATGGA was tested, and the binding signal was -0.137 E-score.
